In publication PMC12040169 (PLOS Biology, 2025):
Some of the results follow.

tested on: T1, C. trachomatis L2/434/Bu expressing GFP (CTL2-GFP); parameters: species or system HeLa; C. trachomatis total inclusion area by high-content imaging, normalised to DMSO; conditions: total inclusion area; 28.5 h, 10 µM; inhibitor
T1 construct: L2/434/Bu GFP intracellular growth in HeLa cells
Outline: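 Post-fluorescence-read fixation, DNA staining with Hoechst and high-content imaging; GFP inclusion area and number per well, and nuclei counts, used as proxies for bacterial growth and host viability.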

| SMILES | % of control remaining |
| --- | --- |
| COCCNc1nc(-c2cc(C(C)C)ccc2OC)ccc1C(=O)NCCNC(C)=O [CBK105985] | 97.5751 |
| NC(=O)c1nc(-c2ccccc2)nc2c1[nH]c(=O)n2-c1cccc(Cl)c1 [CBK287544] | 116.082 |
| CSCC(=O)N1C[C@@H]2C[C@H](C1)c1c(-c3cncnc3)ccc(=O)n1C2 [CBK289195] | 130.375 |
| CCCN1C(=S)N(CCO)C(=O)/C1=C/C=C1/Oc2ccccc2N1CCC(=O)O [CBK261400] | 90.3125 |
| CCC12CN3CC(CC)(CN(C1)C3c1ccc([N+](=O)[O-])cc1)C2=O (centres unmarked) [CBK263689] | 100.254 |
| COc1ccc([C@@]23CC[C@@H](NC(=O)Nc4ccc(Cl)c(F)c4)C[C@@H]2N(C(C)C)CC3)cc1OC [CBK056852T] | 83.4448 |
| Cc1nc2n(n1)C(c1ccccn1)C1=C(CC(C)CC1=O)N2 (centres unmarked) [CBK288230] | 91.6455 |
| COc1ccc(S(=O)(=O)Nc2ccc(C(=O)O)cc2)cc1[N+](=O)[O-] [CBK266130] | 105.583 |
| CCCc1ccc(-c2nccn2CCn2cc(C)nn2)o1 [CBK307688] | 80.3546 |
| Cc1cc(C(=O)CSc2nc3cc(Cl)cnc3[nH]2)c(C)n1C1CC1 [CBK305867] | 6.261 |
| CSCC(CSC)OC(=O)Nc1ccc(Cl)cc1 [CBK086154] | 21.6429 |
| CC(=O)Nc1ccc(-c2ccc(COC3CCN(C(=O)OC(C)(C)C)CC3)cc2)cc1 [CBK138215] | 47.574 |
| Cc1cccc(S(=O)(=O)Nc2cc(OCCN3CCOCC3)c3occc3c2)c1 [CBK067420C] | 94.6908 |
| COc1ccc(N2CCN(C(=O)CCC(=O)c3cccs3)CC2)cc1 [CBK091413] | 136.805 |
| O=C(N[C@H]1CCN2C(=O)c3cc(-c4ccc5c(c4)OCO5)ccc3NC(=O)[C@H]12)C1CCCC1 [CBK289333] | 98.334 |
| O=C(NCCc1nc2ccccc2[nH]1)c1cccc(Cl)c1 [CBK263514] | 87.7653 |
| Cc1ccc(C(=O)N(Cc2ccncc2)C2CCCCC2)cc1C [CBK085386] | 91.6272 |
| CC(=O)c1cc(C(=O)N(C)CCOc2ccccc2)cs1 [CBK282560] | 119.135 |
| COc1ccc(/C=C/C(=O)Nc2cc(S(N)(=O)=O)ccc2C)cc1 [CBK262651] | 98.1959 |
| CCOC(=O)C1CCN(CCC(=O)Nc2ccc(F)c(F)c2)CC1 [CBK264252] | 102.005 |
| CN(Cc1cnn(C)c1)C(=O)c1ccc(Cl)cc1Br [CBK305404] | 59.2534 |
| Brc1ccc(OCc2ccccc2)c(CNCCN2CCOCC2)c1 [CBK278171C] | 109.292 |
| O=S(=O)(/N=C(/Nc1nccs1)c1ccccc1)c1cccs1 [CBK268709] | 105.925 |
| Cc1c(-c2csc(CC#N)n2)sc2ccccc12 [CBK020828] | 59.952 |
| COc1ccc(C)cc1C1(CNC(=O)N2CCC(C)(O)C2)CCOCC1 (centres unmarked) [CBK305452] | 121.738 |
| O=[N+]([O-])c1cccc(S(=O)(=O)NCCCn2ccnc2)c1 [CBK266676] | 75.5619 |
| CC1=C(C(=O)OCC(C)C)C(c2ccc(C)cc2)N2C(=O)C(C)SC2=N1 (centres unmarked) [CBK091646] | 61.6339 |

| SMILES | % of control remaining |
| --- | --- |
| Cn1cc(CCNC(=O)Nc2ccc(N3CCCCC3)nc2)cn1 [CBK305656] | 72.548 |
| Cc1nc2cc(C(=O)N(C)CCN3CCCCC3)ccc2n1C [CBK281854] | 113.15 |
| CCN(CCN1CCOCC1)C(=O)c1[nH]c2c(F)cccc2c1C [CBK306772] | 93.1443 |
| CCC(=O)Nc1nc2c(OC)ccc(C)c2s1 [CBK287616] | 83.0812 |
| CC(C)c1ccc(CNC(=O)c2ccc(-c3ccoc3)nc2)cc1 [CBK156292] | 77.8874 |
| O=C(O)CCC(NC(=O)c1ccc(I)cc1)C(=O)O (centres unmarked) [CBK087614] | 102.221 |
| O=C(O)c1cccc(NC(=O)c2ccc(CSc3ccc(Br)cc3)cc2)c1 [CBK263226] | 104.445 |
| CCCCOc1ccc(S(=O)(=O)n2ccc3cc(N4CCNCC4)ccc32)cc1 [CBK001315C] | 7.741 |
| COc1cc([C@@]23CC[C@@H](NC(=O)Nc4ccc(F)c(F)c4)C[C@@H]2N(C)CC3)ccc1O [CBK049958C] | 79.6429 |
| Cc1nc(C)n(CC2CCCN(Cc3nc4c(F)cccc4[nH]3)C2)n1 (centres unmarked) [CBK306218] | 45.6082 |
| NC(=O)NCc1ccc(F)cc1 [CBK019769] | 118.181 |
| CC(=O)Nc1ccc(S(=O)(=O)NCCSc2ccccn2)cc1 [CBK263576] | 119.268 |
| CSc1ncc(Cl)c(C(=O)Nc2nnc(C)s2)n1 [CBK268920] | 101.945 |
| CC(C)Oc1ccc(C(=O)C2=C(O)C(=O)N(Cc3cccnc3)C2c2ccncc2)cc1 (centres unmarked) [CBK264920] | 113.144 |
| O=C(Nc1cccnc1)C1CCN(C(=O)OCc2ccccc2)CC1 [CBK083187] | 90.5376 |
| CCN(C(=O)Cn1c(C)cc(=O)c2ccccc21)C1CCOC(C)(C)C1 (centres unmarked) [CBK306797] | 41.4195 |
| Cc1ncccc1-c1csc(C2CCCO2)n1 (centres unmarked) [CBK304121] | 100.716 |
| COc1ncccc1C(=O)N1CCc2ccccc21 [CBK200402] | 72.2704 |
| Cc1ccc2c(C)c(C(=O)Nc3ccc(S(N)(=O)=O)cc3)oc2c1 [CBK267661] | 108.165 |
| O=C(O)CC(Cc1ccccc1)C(=O)Nc1ccc(F)cc1 (centres unmarked) [CBK286841] | 83.3941 |
| N#Cc1ccc(-c2cccs2)nc1SCC(=O)Nc1ccc([N+](=O)[O-])cc1 [CBK066850] | 87.9106 |
| CC(=O)N1CCC[C@H]2NC(=O)CNC(=O)C3(C/C=C/C[C@H]21)CCN(C(=O)c1ccon1)CC3 [CBK292057] | 78.3864 |
| Cc1ccc(C2CCCN2C(=O)c2ccc(=O)n(CC(=O)NC3CCCCC3)c2)cc1C (centres unmarked) [CBK285982] | 110.817 |
| c1csc(CNc2nccnc2-c2ccoc2)c1 [CBK036599] | 170.05 |
| COc1ccc(OC)c(NS(=O)(=O)c2ccc(C(=O)O)cc2)c1 [CBK267603] | 93.4675 |
| CCN1CC2(CCC1=O)CCN(c1ccnc(OC)c1C#N)CC2 [CBK307018] | 76.6221 |
| Nc1ncc(-c2cc(C(F)(F)F)cc(C(F)(F)F)c2)nc1N1CCC[C@@H]1CO [CBK063501] | 88.8036 |

| SMILES | % of control remaining |
| --- | --- |
| CC1=CC[C@H]2COC(CN3CCOC3C(C)C)[C@@H]1C2 (some centres unmarked) [CBK019189] | 102.473 |
| CCOC(=O)c1sc(NC(=O)C2CCCCC2)nc1C [CBK057893] | 38.3549 |
| COc1ccc(-c2cc(Nc3ccccc3)ncn2)cc1 [CBK090911] | 98.7172 |
| CC(C)(C)C1=CC2=NC3(CCCCCCCCCCC3)[C@@H]3C[C@@H](O)[C@@H](O)[C@@H]3N2O1 [CBK303254] | 89.1102 |
| COc1ccc(C(C)C)cc1-c1cncc(N2CCCCC2CCO)n1 (centres unmarked) [CBK037897] | 81.5066 |
| Cc1cc(COc2nc3ccccc3nc2NCCCCO)no1 [CBK173985] | 89.1447 |
| CC1CCCN(CC(C)NC(=O)Cn2cnc3ccc(F)cc3c2=O)C1 (centres unmarked) [CBK305953] | 72.9908 |
| COC(=O)c1cccn2cc(CN3CCOCC3(C)C)nc12 [CBK304879] | 32.6449 |
| O=C(N/N=C\c1cccs1)c1n[nH]c2c1CCCC2 [CBK261667] | 109.251 |
| O=C(c1c[nH]c2ccccc12)N1CCc2ccccc2C1 [CBK200331] | 94.5145 |
| Cc1nc(COC(=O)c2ccc(C#N)c(C)n2)cs1 [CBK297775] | 75.2049 |
| O=C(c1cccnc1)N1CCN(C2CC(=O)N(c3ccc(F)cc3)C2=O)CC1 (centres unmarked) [CBK270049] | 93.724 |
| O=C(C(c1ccccc1)c1ccccc1)N1CCC2(CCNC2)C1 (centres unmarked) [CBK156729C] | 110.78 |
| COc1ccc(C)cc1NC(=O)c1cnc2sc(C)cn2c1=O [CBK287714] | 114.517 |
| CC(=O)c1nnnn1C(C)(C)Cc1ccccc1 [CBK022088] | 70.3611 |
| Cc1ccc(NS(=O)(=O)c2c(Br)sc3ccnc(N4CCN(C)CC4)c23)cc1 [CBK034654C] | 73.1487 |
| CN(CC(=O)Nc1nnc[nH]1)S(=O)(=O)c1ccc(Br)cc1 [CBK268618] | 112.395 |
| CCn1c(C)cc2cc(NC(=O)c3cnc(C)nc3C)ccc21 [CBK283260] | 80.7304 |
| CSc1ccc(-c2nc(C)c(C(C)=O)n2O)cc1 [CBK288356] | 114.517 |
| CC1(C)CC(=O)c2sc(NC(=O)c3ccc4ncccc4c3)nc2C1 [CBK144105] | 99.8219 |
| CN(Cc1ccc(-c2ccc(S(C)(=O)=O)cc2)nc1)C1CCN(C(=O)c2ccc(Cl)c(Cl)c2)CC1 [CBK164101T] | 74.6799 |
| COC(=O)CCn1c(-c2ccncc2)cc2cccnc21 [CBK282592] | 54.8427 |
| O=C(c1ccco1)N1CCN(c2cncc(-c3cccc4cccnc34)n2)CC1 [CBK037339] | 81.5634 |
| CCOc1ccc(-c2ccnc(NCCNC(C)=O)n2)cc1C(=O)O [CBK306898] | 85.8255 |
| O=C(Nc1ccccc1F)C1CCCN1c1nc(O)cc(C(F)(F)F)n1 (centres unmarked) [CBK004307] | 90.9804 |
| CS(=O)(=O)N1CC2(CCN(Cc3cccc(C(F)(F)F)c3)CC2)c2ccccc21 [CBK126670] | 95.9609 |
